This passage reports binding results from PMC6249969.

By UniProt entry, the sequences of proteins in these tests, tags left out.
UniProt Q9SJM0: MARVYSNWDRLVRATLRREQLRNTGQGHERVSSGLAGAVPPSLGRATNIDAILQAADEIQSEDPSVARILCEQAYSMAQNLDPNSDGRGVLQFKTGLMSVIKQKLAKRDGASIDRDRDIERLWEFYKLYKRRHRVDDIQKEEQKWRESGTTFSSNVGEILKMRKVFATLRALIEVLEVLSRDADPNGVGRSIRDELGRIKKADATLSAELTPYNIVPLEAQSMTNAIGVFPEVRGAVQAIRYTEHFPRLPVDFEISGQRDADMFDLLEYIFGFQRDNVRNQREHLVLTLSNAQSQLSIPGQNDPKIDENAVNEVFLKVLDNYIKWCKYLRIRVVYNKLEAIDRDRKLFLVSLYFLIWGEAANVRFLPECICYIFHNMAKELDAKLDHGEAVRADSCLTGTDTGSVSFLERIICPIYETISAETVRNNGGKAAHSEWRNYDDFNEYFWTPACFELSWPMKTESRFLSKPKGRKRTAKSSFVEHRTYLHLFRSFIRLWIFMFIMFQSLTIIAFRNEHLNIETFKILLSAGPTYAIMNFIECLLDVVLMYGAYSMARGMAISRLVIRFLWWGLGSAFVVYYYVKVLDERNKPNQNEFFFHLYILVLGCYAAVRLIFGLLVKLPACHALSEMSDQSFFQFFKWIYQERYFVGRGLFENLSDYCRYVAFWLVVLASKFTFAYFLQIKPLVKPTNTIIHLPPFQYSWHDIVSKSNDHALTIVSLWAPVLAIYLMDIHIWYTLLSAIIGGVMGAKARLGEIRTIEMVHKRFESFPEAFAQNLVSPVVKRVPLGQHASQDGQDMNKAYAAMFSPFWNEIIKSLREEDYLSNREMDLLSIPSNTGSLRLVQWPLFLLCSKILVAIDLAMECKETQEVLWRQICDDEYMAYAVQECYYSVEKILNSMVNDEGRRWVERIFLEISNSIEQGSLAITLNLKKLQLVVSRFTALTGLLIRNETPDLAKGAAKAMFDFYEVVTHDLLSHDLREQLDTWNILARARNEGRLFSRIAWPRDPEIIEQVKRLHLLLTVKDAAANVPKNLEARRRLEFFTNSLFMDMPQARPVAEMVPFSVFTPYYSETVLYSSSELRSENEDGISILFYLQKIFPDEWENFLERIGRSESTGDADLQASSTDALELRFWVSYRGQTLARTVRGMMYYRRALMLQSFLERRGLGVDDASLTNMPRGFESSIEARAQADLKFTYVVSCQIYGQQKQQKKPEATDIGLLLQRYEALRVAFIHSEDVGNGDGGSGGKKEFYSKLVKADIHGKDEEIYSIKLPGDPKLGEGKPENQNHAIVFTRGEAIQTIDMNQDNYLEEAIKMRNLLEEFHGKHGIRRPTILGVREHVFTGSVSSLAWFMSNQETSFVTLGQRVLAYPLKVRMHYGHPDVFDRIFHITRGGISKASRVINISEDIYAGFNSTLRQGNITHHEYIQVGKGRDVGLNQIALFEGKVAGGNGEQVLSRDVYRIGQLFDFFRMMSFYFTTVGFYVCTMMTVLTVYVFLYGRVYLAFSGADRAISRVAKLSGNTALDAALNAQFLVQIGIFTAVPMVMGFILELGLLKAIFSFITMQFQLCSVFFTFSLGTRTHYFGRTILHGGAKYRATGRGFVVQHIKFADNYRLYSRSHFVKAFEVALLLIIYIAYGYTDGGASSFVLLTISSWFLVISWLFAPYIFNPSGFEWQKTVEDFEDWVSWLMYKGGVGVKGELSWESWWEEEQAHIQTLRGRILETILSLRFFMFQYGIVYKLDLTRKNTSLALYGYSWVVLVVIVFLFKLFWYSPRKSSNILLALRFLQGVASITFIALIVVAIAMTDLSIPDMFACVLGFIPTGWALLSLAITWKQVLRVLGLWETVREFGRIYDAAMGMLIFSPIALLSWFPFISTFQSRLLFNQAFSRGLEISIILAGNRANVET

Results are given in words; binding and its absence hold for the method and conditions named. Binding seen in cells or lysates may run through a third protein. Some entries that bind do so weakly or less than the wild type. Sequences can lack the tags named with a protein.

The test has as its target GLUCAN SYNTHASE-LIKE 8 (GSL8) fused to YFP (Arabidopsis thaliana) (UniProt Q9SJM0). As to the kind of experiment: FRET or BRET; FRET by acceptor photobleaching in infiltrated N. bentamiana leaves, 3 dpi; GSL8-YFP (acceptor) with candidate interactor fused to CFP (donor).

B1: stomatal cytokinesis-defective 1 (SCD1) fused to CFP (protein, UniProt Q8RXA7 1-1187)
chain: MGRIFEYFVVCGLGPEMRTVDGDLGFHGMQTFYLPALLDQFPPTDQSPYPAPPPQLPTCVLPAGVEFHSSGFVSSDPASFPRSYPIVLTEGDGSKIFVSCIAFRDRVCEDIIEAYRLPPNTYADKCICLVSHAPNFRVLRNSLEEIFVLCFSSEGSCKPLWDIIAYMVSNVPLPTPGKDRVLFAVENCLLSVEAPPEDSLPQADISLQPLVQCLDVDNLIKLFTSVLVERRILIRSNKYSLLTLVSESICHLIYPFRWLQVYIPLLFFSGVDYIDAPTPYMMGLHSDVDTSNLAMDGVVVVDLDINQITTSEEIPQIPEPEFSTLRNDILKLLHPNVVAIDQLKGFGNSVEQCPKSLSKPWGEDHDLQLRVIFLKCFASILGGYRNFIENKVFSTDAFLKRRSRSTNQPPEPMLVQFLGSFAFLDYLERRLSSDEKSTNLLEKLQDAVGRGQDAMSILPKSSMEPEIITIAEPEVEESATRYTYDRFPASVRSEEQEEKRKQILAAASGALESNGRHPPSSPPGKNTKEDNFSSMERAAERERMVLDIQVKLQGLWLRLLKLGSDEDPLSSFEYGTILALIESDAEGIGGSGFIECIREHLYSGWHGQLSEEQFIAVKELLKMAVGRAASRSDLSTVRDALEVSAEMFKKDANNVSDYVQRHLISIPIWEELRFWEGYFEYLMEQPANESVNYATLVTARLIIVASHMAGLGLPDTEAWNMIETIAEKQKLGYKLLIKLRGFLSHVQQLRVGYWGASSFKQQAISAGLPSPRPKDVSVSDETQQPSEASGRSWVQSMFSRDTASRANSFSRVRKWVSDNASSDITAAAQKKIQTNVRVLKGHGGAVTALHSVTRREVCDLVGDREDAGFFISGSTDCLVKIWDPSLRGSELRATLKGHTGTVRAISSDRGKIVSGSDDLSVIVWDKQTTQLLEELKGHDSQVSCVKMLSGERVLTAAHDGTVKMWDVRTDMCVATVGRCSSAILSLEYDDSTGILAAAGRDTVANIWDIRSGKQMHKLKGHTKWIRSIRMVEDTLITGSDDWTARVWSVSRGSCDAVLACHAGPVQSVEYSPFDKGIITGSADGLLRFWENDEGGIKCVKNITLHSSSILSINAGENWLGIGAADNSMSLFHRPSNAGTKVSGWQLYRVPQRTAAVVRCVASDLERKRICSGGRNGVLRLWDATINI
As to B1, the binding result was “binds”.
